From the supplement of paper PMC9446081
The campaign covered roughly 39,000 compounds. About 220 (0.56%) showed activity. The list shows a part of the results.

Test system: Escherichia coli K-12 BW25113
Test: relative growth (OD600 normalised to plate interquartile mean) (fraction); higher = less growth inhibition, active = 0.2 or less
Settings: 50 µM; LB; incubation time: overnight (16-24 h)
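Note: static incubation at 37 °C against the wild-type strain, values averaged over two biological replicates.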

SMILES	relative growth
Cc1cccc(S(=O)(=O)N2C[C@@H](O)COC[C@H]3O[C@H](CC(=O)NCc4ccc(Cl)c(Cl)c4)CC[C@@H]32)c1	inactive: 1.01
COc1ccc2c3c([nH]c2c1)[C@H](CO)N(C[C@]13CN(C1)S(=O)(=O)c1ccccc1)C(=O)c1cnccn1	inactive: 0.994
C[C@@H]1CN([C@@H](C)CO)C(=O)c2cc(NC(=O)Nc3ccc4c(c3)OCO4)ccc2O[C@@H](C)CCCCO[C@@H]1CN(C)Cc1ccncc1	inactive: 0.988
C[C@H]1CN([C@@H](C)CO)C(=O)Cc2cc(NC(=O)c3ccncc3)ccc2O[C@H]1CN(C)S(=O)(=O)c1ccc(F)cc1	inactive: 0.994
CC(C)CC#Cc1cnc2c(c1)C(=O)N([C@@H](C)CO)C[C@@H](C)[C@@H](CN(C)C(=O)CN1CCOCC1)O2	inactive: 1
Cc1ccc(S(=O)(=O)N(C)C[C@@H]2Oc3ncc(C#CC4(O)CCCC4)cc3C(=O)N([C@H](C)CO)C[C@@H]2C)cc1	inactive: 0.883
CC(C)NC(=O)N(C)C[C@H]1OCCCC[C@@H](C)Oc2ccc(NS(C)(=O)=O)cc2C(=O)N([C@H](C)CO)C[C@H]1C	inactive: 0.985
CCCNC(=O)N1C[C@H](C)[C@H](OC)CN(C)C(=O)c2ccc(NS(=O)(=O)CC(F)(F)F)cc2OC[C@H]1C	inactive: 0.974
C[C@H]1[C@H]([Si](C)(C)F)[C@@H](CCO)O[C@]12C(=O)N(Cc1cccc(N(C=O)c3ccccc3)c1)c1ccccc12	inactive: 0.891
C[C@@H]1CN([C@@H](C)CO)C(=O)CCCn2nncc2CO[C@@H]1CN(C)C(=O)c1cc(-c2ccccc2)on1	inactive: 0.991
O=C(C[C@@H]1C[C@@H]2c3cc(NC(=O)NC4CCCC4)ccc3O[C@@H]2[C@@H](CO)O1)NCc1ccc(Oc2ccccc2)cc1	inactive: 0.987
C[C@@H]1CN([C@@H](C)CO)C(=O)c2cc(NC(=O)C3CCCCC3)ccc2O[C@@H](C)CCCCO[C@H]1CN(C)C(=O)Nc1cccc2ccccc12	inactive: 1.01
C[C@@H]1CN([C@@H](C)CO)C(=O)c2cc(NC(=O)CCC(F)(F)F)ccc2O[C@H]1CN(C)Cc1ccc(C(F)(F)F)cc1	inactive: 0.98
Cc1ccc2nc(SCc3ccc4ccccc4c3)[nH]c2c1	inactive: 0.969
C[C@H](CO)N1C[C@H](C)[C@H](CN(C)S(=O)(=O)c2cccc(F)c2)Oc2cc(C#CCN(C)C)ccc2S1(=O)=O	inactive: 1.03
CO[C@H]1O[C@H](CO)[C@@H](OC(=O)Nc2cccc(F)c2)[C@@H]2OC(=O)[C@H](Cc3cccc(Br)c3)C/C=C/C[C@@H](Cc3cccc(Br)c3)C(=O)O[C@@H]12	inactive: 1.01
COc1ccc(CN(C)C[C@@H]2Oc3ccc(NC(=O)Nc4ccc(C(F)(F)F)cc4)cc3C(=O)N([C@H](C)CO)C[C@@H]2C)cc1	inactive: 0.988
C[C@H]1CN([C@@H](C)CO)C(=O)c2cc(C3=CCCC3)cnc2O[C@@H]1CN(C)S(=O)(=O)c1cn(C)cn1	inactive: 0.997
O=C(C[C@@H]1C[C@H]2c3cc(NS(=O)(=O)c4ccc(F)cc4)ccc3O[C@H]2[C@@H](CO)O1)NCc1ccccc1F	inactive: 0.998
Cc1noc(C)c1S(=O)(=O)N(C)C[C@H]1Oc2ccc(NC(=O)Nc3ccc4c(c3)OCO4)cc2CC(=O)N([C@@H](C)CO)C[C@@H]1C	inactive: 1.01
COCC(=O)Nc1ccc2c(c1)OC[C@@H](C)N(Cc1ccccc1C(=O)O)C[C@@H](C)[C@H](OC)CN(C)C2=O	inactive: 0.994

SMILES	relative growth
Cc1noc(C)c1S(=O)(=O)Nc1ccc2c(c1)C(=O)N([C@@H](C)CO)C[C@H](C)[C@H](CN(C)S(=O)(=O)c1ccc(Cl)cc1)O2	inactive: 1.01
COc1ccc(NC(=O)N(C)C[C@H]2Oc3ccc(NC(=O)Nc4cccc5ccccc45)cc3CC(=O)N([C@H](C)CO)C[C@@H]2C)cc1	inactive: 1
Cc1ccc(S(=O)(=O)Nc2ccc3c(c2)C(=O)N([C@H](C)CO)C[C@@H](C)[C@H](CN(C)C(=O)C2CCCCC2)OCCCC[C@@H](C)O3)cc1	inactive: 0.913
C[C@@H]1CN([C@H](C)CO)C(=O)c2cccc(NC(=O)Nc3ccc(C(F)(F)F)cc3)c2O[C@@H]1CN(C)Cc1ccc(C(=O)Nc2ccccc2N)cc1	inactive: 1.01
C[C@H](CO)N1C[C@H](C)[C@H](CN(C)S(C)(=O)=O)Oc2c(NS(=O)(=O)c3cn(C)cn3)cccc2C1=O	inactive: 1
S=C1NCN(Cc2cccs2)CN1	inactive: 1.04
CN1CCN(C(=O)C[C@@H]2CC[C@@H]3[C@H](COC[C@@H](O)CN3C(=O)C3CC3)O2)CC1	inactive: 0.986
COc1ccc(S(=O)(=O)N(C)C[C@H]2Oc3ccc(NC(=O)C4CC4)cc3C(=O)N([C@H](C)CO)C[C@@H]2C)cc1	inactive: 1.02
NC(=O)CC(N)=S	inactive: 0.991
Cc1noc(C)c1S(=O)(=O)N(C)C[C@H]1Oc2c(NC(=O)NC(C)C)cccc2C(=O)N([C@H](C)CO)C[C@H]1C	inactive: 1.01
COc1ccc(S(=O)(=O)Nc2ccc3c(c2)C(=O)N([C@H](C)CO)C[C@H](C)[C@@H](CN(C)C(=O)Nc2ccc(C(F)(F)F)cc2)OCCCC[C@@H](C)O3)cc1	inactive: 0.999
Nc1nc(S)c2nc[nH]c2n1	inactive: 0.861
O=C(O)[C@H](O)[C@@H](O)C(=O)O	inactive: 1.04
CC(=O)OC1CCC2(C)C(CCC3C4CC=C(C(C)=O)C4(C)CCC32)C1 (stereo not drawn) [3-beta-ACETOXYALLOPREG-16-EN-20-ONE]	inactive: 0.927
Cc1noc(C)c1S(=O)(=O)N(C)C[C@H]1Oc2ccc(NC(=O)c3ccncc3)cc2C(=O)N([C@H](C)CO)C[C@@H]1C	inactive: 0.999
NS(=O)(=O)c1cc2c(cc1Cl)NC(C1CC3C=CC1C3)NS2(=O)=O (configuration not stated)	inactive: 1.02
Cc1ccc(N2CCC(CN)CC2)nn1	inactive: 1
O=C1NS(=O)(=O)c2ccccc21	inactive: 0.978
C[C@H](CO)N1C[C@H](C)[C@H](CN(C)S(=O)(=O)c2cn(C)cn2)Oc2ncc(C#Cc3ccc(F)cc3)cc2C1=O	inactive: 0.995
C[C@@H]1CN([C@@H](C)CO)C(=O)Cc2cc(N(C)C)ccc2O[C@H]1CN(C)S(=O)(=O)c1ccc(F)cc1	inactive: 0.982
COc1ccc(S(=O)(=O)N(C)C[C@@H]2OCCCC[C@@H](C)Oc3ccc(NC(=O)Nc4ccc(C(F)(F)F)cc4)cc3C(=O)N([C@H](C)CO)C[C@H]2C)cc1	inactive: 1.03

SMILES	relative growth
C[C@@H]1CN([C@@H](C)CO)C(=O)Cc2cc(NC(=O)CCN3CCOCC3)ccc2O[C@H]1CN(C)Cc1ccc2c(c1)OCO2	inactive: 0.998
CN1CCN(C(=O)C[C@H]2CC[C@@H](NC(=O)Cc3ccccn3)[C@@H](CO)O2)CC1	inactive: 0.987
C[C@H]1CN([C@@H](C)CO)C(=O)c2cc(NC(=O)CCC(F)(F)F)ccc2O[C@@H]1CN(C)Cc1ccc(C(=O)Nc2ccccc2N)cc1	inactive: 0.981
COc1ccc(S(=O)(=O)N(C)C[C@@H]2Oc3ccc(NC(=O)CCN4CCOCC4)cc3CC(=O)N([C@H](C)CO)C[C@@H]2C)cc1	inactive: 0.988
COc1cccc(S(=O)(=O)Nc2ccc3c(c2)[C@@H]2C[C@H](CC(=O)NCc4cccc(F)c4)O[C@H](CO)[C@@H]2O3)c1	inactive: 0.99
CC(C)NC(=O)N(C)C[C@H]1OCCCC[C@H](C)Oc2ccc(NS(=O)(=O)c3cn(C)cn3)cc2C(=O)N([C@@H](C)CO)C[C@H]1C	inactive: 0.975
COCCN(Cc1ccc(OC)cc1)c1c(C)nc2ccc(C(=O)Nc3ccc(Cl)c(Cl)c3)cn12	inactive: 0.996
CC(=O)CC(c1ccccc1)c1c(O)c2ccccc2oc1=O (configuration not stated)	inactive: 1.05
C[C@@H]1CCCCO[C@@H](CN(C)C(=O)Nc2ccc(F)cc2)[C@H](C)CN([C@@H](C)CO)C(=O)c2cc(NC(=O)C3CCCCC3)ccc2O1	inactive: 1.02
C[C@H]1CCCCO[C@H](CN(C)Cc2ccc3c(c2)OCO3)[C@@H](C)CN([C@@H](C)CO)C(=O)c2cc(NC(=O)CCC(F)(F)F)ccc2O1	inactive: 0.997
C[C@H](CO)N1C[C@H](C)[C@@H](CN(C)S(=O)(=O)c2ccccc2F)Oc2ncc(Br)cc2C1=O	inactive: 0.983
Cc1noc(C)c1NC(=O)Nc1ccc2c(c1)CC(=O)N([C@H](C)CO)C[C@@H](C)[C@H](CN(C)C(=O)NC(C)C)O2	inactive: 0.998
c1cc[n+](C[n+]2ccccc2)cc1	inactive: 0.973
CCCC#Cc1ccc2c(c1)O[C@H](CN(C)C(=O)c1cnccn1)[C@@H](C)CN([C@H](C)CO)S2(=O)=O	inactive: 0.989
COc1cccc(NC(=O)N(C)C[C@@H]2Oc3cc(C#Cc4ccncc4)ccc3S(=O)(=O)N([C@H](C)CO)C[C@H]2C)c1	inactive: 0.985
NC(=O)CSc1ncn(-c2ccccc2)n1	inactive: 0.987
CN1CC(=O)N2CCN(C(=O)c3ccc4n[nH]nc4c3)C[C@@H]2C1=O	inactive: 0.994
Cc1ccc2[nH]c(=O)c(C3=NN(C(=O)CCC(=O)O)[C@H](c4ccc(Br)cc4)C3)c(-c3ccccc3)c2c1	inactive: 0.99
C[C@@H]1CN([C@H](C)CO)S(=O)(=O)c2ccc(-c3ccc(F)cc3)cc2O[C@H]1CN(C)C(=O)C1CCOCC1	inactive: 0.922
C[C@@H]1CCCCO[C@@H](CN(C)C(=O)Nc2ccccc2)[C@H](C)CN([C@@H](C)CO)C(=O)c2cc(NC(=O)c3ccncc3)ccc2O1	inactive: 0.977
